{"source": "PubChem BioAssay AID2546", "about": "(National Center for Advancing Translational Sciences (NCATS), 2010)", "note": "Out of some 310,000 compounds screened, about 11,000 (3.5%) were called active. This list was built around the results that the source calls inconclusive (neither active nor inactive); the mix of calls is not that of the screen. Calls come from the whole dose curve; as a rule, active = well fitted inhibition curve with a large enough effect; inconclusive = small, poorly fitted or top-dose-only effect, or effect the other way; inactive = flat fitted curve, though single readings scatter. No potency is given beside an inconclusive call; the fits are too rough. Potency is the fitted concentration of half-maximal effect; tags give direction and shape of the fitted curve.", "data": [{"experiment": "VP16 counterscreen qHTS for inhibitors of ROR gamma transcriptional activity;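 note: Gal4-VP16 expression switched on by copper sulfate through the metallothionein promoter; nearly all actives have a fitted effect of over 50% in size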", "conditions": "Drosophila S2 Gal4-VP16 UAS-luciferase, luminescence, 20 h; series mostly up to 53.6 µM", "values": [{"smiles": "CC(C)[C@H](NC(=O)c1ccccc1)C(=O)OCC(=O)N1CCc2ccccc2C1", "Potency": "inactive"}, {"smiles": "CCOc1ccc(C(=O)N/N=C/c2cccc3cccnc23)cc1", "Potency": "active: 2 µM"}, {"smiles": "Cc1ccc(OCc2cc(C(=O)N3CC4C[C@@H]5CC3C[C@H](C4)C5)no2)cc1C", "Potency": "inconclusive [activator, full curve, poor fit]"}, {"smiles": "O=C(Nc1ccccc1C(=O)N/N=C/c1ccc(O)cc1)c1ccccc1", "Potency": "inconclusive [inhibitor, single point]"}, {"smiles": "CCc1nc(NCCCCCO)c2nnn(Cc3ccccc3F)c2n1", "Potency": "inactive"}, {"smiles": "O=C(Nc1ccc2c(c1)nc1n2CCCCC1)c1cc(S(=O)(=O)N2CCOCC2)ccc1Cl", "Potency": "active: 12.6 µM"}, {"smiles": "C=CCN1C(=O)C(Cc2ccc(OCC)cc2)S/C1=N\\N=C\\c1cccs1", "note": "(configuration not stated)", "Potency": "inactive"}, {"smiles": "O=C(NC(=S)NNC(=O)c1ccccc1O)c1ccco1", "Potency": "active: 3.55 µM"}, {"smiles": "O=C(/C=C/c1ccc(Cl)c([N+](=O)[O-])c1)Nc1ccc(N2CCCC2)c(Cl)c1", "Potency": "inconclusive [inhibitor, partial curve]"}, {"smiles": "O=CCCCC=O", "Potency": "inactive"}, {"smiles": "O=C(O)/C=C/C(=O)N1N=C(c2ccco2)CC1c1ccco1", "note": "(configuration not stated)", "Potency": "inactive"}, {"smiles": "CCOC(=O)N1CCC(NC(=O)Cn2ncc3c2-c2cc(C)ccc2OC3)CC1", "Potency": "inactive"}, {"smiles": "CCC1=NN(C(=O)COc2ccccc2C)C(O)(c2ccncc2)C1", "note": "(configuration not stated)", "Potency": "inconclusive [inhibitor, single point]"}, {"smiles": "COc1ccccc1Nc1nn2c(=O)c3ccc(C(=O)N4CCCCC4)cc3nc2s1", "Potency": "inactive"}, {"smiles": "O=c1c(-c2ccc(Cl)cc2)nc2cnc(N3CCOCC3)nc2n1-c1ccccc1", "Potency": "inactive"}, {"smiles": "NC(=O)C(=CNc1nc(-c2ccc(Cl)c(Cl)c2)cs1)C(N)=O", "Potency": "inconclusive [inhibitor, single point]"}, {"smiles": "C=CCc1c(C)nc2cc(-c3ccccc3)[nH]n2c1=O", "Potency": "inconclusive [inhibitor, single point]"}, {"smiles": "Cc1nc(C(C)NC(=O)CCc2nnc(-c3ccsc3)o2)cs1", "note": "(configuration not stated)", "Potency": "inconclusive [activator, single point]"}, {"smiles": "C=CCNc1cc(C(F)(F)F)nc(-c2ccccn2)n1", "Potency": "active: 7.08 µM"}, {"smiles": "Cc1nn(Cc2ccc(F)cc2)c2sc(C(=O)Nc3nccs3)cc12", "Potency": "inconclusive [inhibitor, single point]"}, {"smiles": "COc1ccc(CNC(=S)Nc2cccc(C)c2)cc1", "Potency": "active: 20 µM"}, {"smiles": "CCOC(=O)C1=C(c2ccc(OC)cc2)OC(N)=C(C#N)C1c1cccnc1", "note": "(configuration not stated)", "Potency": "inconclusive [activator, single point]"}]}]}
